Results reported in patent US20240190987A1, “Engineered EpCam Binding Antibodies” (TigaTX, priority 2021, published 2024).

Assays:
[1] = test system: human T-cells with HCT-116 target cells; experiment: T-cell activation (CD69 upregulation) in co-culture with HCT-116; format: cell-based; conditions: anti-EpCAM T-LITE, FIG. 25
Description: (§1) Leukapheresis packs were obtained from deidentified healthy adult donors (StemCell Technologies, Vancouver, BC). Peripheral blood mononuclear cells (PBMCs) were first isolated using the EasySep Direct Human PBMC Kit (StemCell Technologies). Human T cells were magnetically isolated from the PBMCs using the EasySep Human T cell Isolation Kit (StemCell Technologies). T cells were cryopreserved in DMEM with 10% FBS and 10% DMSO and thawed the day of experiments.
Co-culture assays were used to assess T-cell activation (CD69 upregulation), cytokine production or T-cell-dependent cellular cytotoxicity (TDCC) of target cells. […] While T cells were being processed, target cells were incubated with CellTiter-Glo 2.0 (Promega, Madison, WI) for 15 min at room temperature with shaking then read for luciferase light emission on a GloMax Explorer plate reader using default settings. Specific Cytotoxicity (%) was calculated from the relative luminescence unit values (RLU) using the formula: [1−(experimental RLU/vehicle-treated RLU))×100]. The frequency of CD69+ T-cells (%) was calculated as the percentage of CD69-positive events within the CF405M-negative population. Dose-response curves and EC50 values were calculated in GraphPad Prism 9 software (GraphPad Software San Diego, CA).

[2] = Differential scanning fluorimetry (DSF) melting temperature; format: physicochemical
Method: DSF was performed on a LC480 Lightcycler Instrument II (Roche). Purified recombinant protein was diluted to 5 μM in DSF buffer (PBS, pH 7.4, Sypro Orange 5×) with small molecule (10 μM VTX) or vehicle (0.05% DMSO) and then heated with a temperature gradient (0.01° C./s) from 25 to 95° C. Data were continuously acquired at ˜465 nm (excitation) and ˜580 nm (emission). Data was analyzed to generate first derivative curves in which the curve maximum was reported as the melting temperature of the protein.

HCT-116 target cells = experiment: TDCC co-culture assay, HCT-116 target cells; format: cell-based, human; conditions: for TDCC in the absence of indinavir / indinavir dependence: HCT-116, DMSO vehicle vs indinavir
Description: as §1
Co-culture assays were used to assess T-cell activation (CD69 upregulation), cytokine production or T-cell-dependent cellular cytotoxicity (TDCC) of target cells. Flat-bottom 96-well plates were seeded with 5,000 target cells in complete growth media (DMEM+10% FBS+1% penicillin/streptomycin) 16-24 hrs before the assay. Antibody drugs were added in 10 μL growth media and incubated for at least 10 min at 37° C. Indinavir or vehicle control was added in 10 μL growth media. Magnetically isolated human T-cells were thawed, washed, and resuspended in complete growth media, then added to target cells (50,000 T cells per well) in 80 μL growth media for a final assay well volume of 100 μL. The final effector:target (E:T) ratio was 10:1. Assay plates were incubated at 37° C. with 5% CO2 for 66-70 hr depending on the experiment. T-cells were transferred to a U-bottom 384-well plate and spun (600 rcf×5 min). Supernatants were stored at −20° C. for later analysis of cytokines. T-cells were resuspended in CF405M viability dye (0.5 μM, Biotium, Fremont, CA) in PBS for 10 min at 37° C. At the end of viability staining, cells were fixed by adding methanol-free paraformaldehyde (Electron Microscopy Sciences, Hatfield, PA) to a final concentration of 1% for 10 min at room temperature. T-cells were spun (600 rcf×5 min) and supernatant was aspirated. T-cells were stained with FITC-conjugated anti-human CD45 (BioLegend, San Diego, CA) at 1 pg/mL final dilution and PE-conjugated anti-human CD69 (BioLegend, San Diego, CA) at 400 ng/mL final dilution for 30 minutes at room temperature in the dark, then immediately run an IntelliCyt® iQue3 flow cytometer (Sartorius AG, Göttingen, Germany). While T cells were being processed, target cells were incubated with CellTiter-Glo 2.0 (Promega, Madison, WI) for 15 min at room temperature with shaking then read for luciferase light emission on a GloMax Explorer plate reader using default settings. Specific Cytotoxicity (%) was calculated from the relative luminescence unit values (RLU) using the formula: [1−(experimental RLU/vehicle-treated RLU))×100]. The frequency of CD69+ T-cells (%) was calculated as the percentage of CD69-positive events within the CF405M-negative population. Dose-response curves and EC50 values were calculated in GraphPad Prism 9 software (GraphPad Software San Diego, CA).

Molecule | T-cell activation in co-culture [1] | TM (° C.) ([2]; LS2A R4 variants (Table 21)) [°C] | T-cell mediated cellular cytotoxicity in co-culture (HCT-116 target cells; anti-EpCAM T-LITE, FIG. 25) | TM (° C.) ([2]; thermostability by DSF, Table 27) [°C] | TDCC in the absence of indinavir / indinavir dependence (HCT-116 target cells)
Ab1126: LS2A R4M32 as anti-EpCAM T-LITE; parental Ab 1094 (protein) scFv-Fc: QVQLVQSGAEVKKPGASVKVSCKASGYTFTSYWMHWVRQHPGQGLEWMGMIHPNSGGTNYAQKFQGRVTMTRDTSTSTVYMELSSLRSEDTAVYYCAMGDYVSRDYWGQGTLVTVSSGGGGSGGGGSGGGGSEIVLTQSPGTLSLSPGERATLSCRASSSVSSSYLHWYQQKPGQAPRLLIYSTSSRATGIPDRFSGSGSGTDFTLTISRLEPEDFAVYYCQQYSGAQFTFGQGTKLEIKGGGGS[human IgG1 Fc with changes left out] light: DIQMTQSPSSLSASVGDRVTITCSASSSVSSGNFHWYQQKPGKAPKLLIYRTSNLASGVPSRFSGSGSGTDYTLTISSLQPEDFATYYCQQWSGYPYTFGQGTKVEIKRTVAAPSVFIFPPSDEQLKSGTASVVCLLNNFYPREAKVQWKVDNALQSGNSQESVTEQDSKDSTYSLSSTLTLSKADYEKHKVYACEVTHQGLSSPVTKSFNRGEC heavy: EVQLVESGGGLVQPGGSLRLSCAASGFTFSNYWMNWVRQAPGKGLEWVAQIRVKSENFATHYADSVKGRFTISRDDSKSTVYLQMNSLRAEDTAVYYCTLYDGFSWGQGTLVTVSSASTKGPSVFPLAPSSKSTSGGTAALGCLVKDYFPEPVTVSWNSGALTSGVHTFPAVLQSSGLYSLSSVVTVPSSSLGTQTYICNVNHKPSNTKVDKKV[human IgG1 Fc with changes left out] | comparable | 59.1 | comparable | – | –
Ab1089: anti-EpCAM T-LITE antibody (protein, knob heavy chain missing; REGION 1..215: note = Ab1089 Hole LC; REGION 1..445: note = Ab1089 Hole HC, anti-EpCAM T-LITE antibody) light: DIQMTQSPSSLSASVGDRVTITCSASSSVSSGNFHWYQQKPGKAPKLLIYRTSNLASGVPSRFSGSGSGTDYTLTISSLQPEDFATYYCQQWSGYPYTFGQGTKVEIKRTVAAPSVFIFPPSDEQLKSGTASVVCLLNNFYPREAKVQWKVDNALQSGNSQESVTEQDSKDSTYSLSSTLTLSKADYEKHKVYACEVTHQGLSSPVTKSFNRGEC heavy: EVQLVESGGGLVQPGGSLRLSCAASGFTFSNYWMNWVRQAPGKGLEWVAQIRVKSENFATHYVDSVKGRFTISRDDSKSTVYLQMNSLRAEDTAVYYCTLYDAFSWGQGTLVTVSSASTKGPSVFPLAPSSKSTSGGTAALGCLVKDYFPEPVTVSWNSGALTSGVHTFPAVLQSSGLYSLSSVVTVPSSSLGTQTYICNVNHKPSNTKVDKKV[human IgG1 Fc with changes left out] | – | – | – | 71 | significant amount of indinavir-independent killing
Ab1059: anti-EpCAM T-LITE antibody, preferred 2+1 format (protein, REGION 1..215: note = Ab1059 Hole LC; REGION 1..471: note = Ab1059 Knob HC; REGION 1..446: note = Ab1059 Hole HC, anti-EpCAM T-LITE antibody, preferred 2+1 format) light: DIQMTQSPSSLSASVGDRVTITCSASSSVSSGNFHWYQQKPGKAPKLLIYRTSNLASGVPSRFSGSGSGTDYTLTISSLQPEDFATYYCQQWSGYPYTFGQGTKVEIKRTVAAPSVFIFPPSDEQLKSGTASVVCLLNNFYPREAKVQWKVDNALQSGNSQESVTEQDSKDSTYSLSSTLTLSKADYEKHKVYACEVTHQGLSSPVTKSFNRGEC heavy 1: QVQLVQSGAEVKKPGASVKVSCKASGYTFTSYWMHWVRQHPGQGLEWMGIIHPNSGGTSYAQKFQGRVTMTRDTSTSTVYMELSSLRSEDTAVYYCAMGDYVSRDYWGQGTLVTVSSGGGGSGGGGSGGGGSEIVLTQSPGTLSLSPGERATLSCRASSSVSSSYLHWYQQKPGQAPRLLIYSTSSRATGIPDRFSGSGSGTDFTLTISRLEPEDFAVYYCQQYSGYQFTFGQGTKLEIKGGGGS[human IgG1 Fc with changes left out] heavy 2: EVQLVESGGGLVQPGGSLRLSCAASGFTFSNYWMNWVRQAPGKGLEWVAQIRVKSENFATHYADSVKGRFTISRDDSKSTVYLQMNSLRAEDTAVYYCTLYDGFSWGQGTLVTVSSASTKGPSVFPLAPSSKSTSGGTAALGCLVKDYFPEPVTVSWNSGALTSGVHTFPAVLQSSGLYSLSSVVTVPSSSLGTQTYICNVNHKPSNTKVDKKV[human IgG1 Fc with changes left out] | – | – | – | – | significant amount of indinavir-independent killing
